Assay results: the supplement of paper PMC10126150
Sequences with one replicate were seen in a single cluster, so their values are uncertain.

System: ATP
Test: switch fluorescence ratio, 500 uM ATP over buffer (Cy3 cluster intensity, sum of 5 cycles each) (fold (ratio)); higher = stronger signal-on switching upon ATP binding; sequences stand for … in TCGTCGGCAGCGTCAGATGTGTATAAGAGACAGTTTTTTTTTTTTTTTTTTTTTTTTT…TC
Conditions: aptamer strand: ATP DNA aptamer (quencher-CACCTGGGGGAGTATTGCGGAGGAAGG + anchor), 100 nM annealed; ATP concentration: 500 uM; one replicate
How it was run: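 Between each of five buffer/ATP cycles, the flow-cell was stripped with NaOH and re-annealed. Each cycle imaged Cy3-labelled switching-strand clusters, annealed to 100 nM quencher-labelled ATP aptamer on a modified Illumina MiSeq flow-cell, first in selection buffer and then after 15 min with 500 uM ATP at 22 °C. The fluorescence ratio is summed target-cycle over summed buffer-cycle Cy3 intensity per cluster, averaged per switch-domain sequence, with clusters outside 100-1000 RFU excluded.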
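Also: ATP exposure 15 min at 22 °C before imaging.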

ACACTAACCC was tested, and the switch fluorescence ratio was 1.24.

GATTCTTAG was tested, and the switch fluorescence ratio was 0.978.

With GATAGTACTT the switch fluorescence ratio was 0.99.

In the case of GACTAGGGAT, the switch fluorescence ratio is reported as 1.

With AACTACTGTA the switch fluorescence ratio was 1.86.

For TTGACGTTCA, the switch fluorescence ratio was 1.08.

GGGTAGGAGT showed a switch fluorescence ratio of 1.

CGTATGGATT gave a switch fluorescence ratio of 1.

Sequence GTTCATGTCT has a switch fluorescence ratio of 0.996.

GCTGGGAACG was tested, and the switch fluorescence ratio was 0.973.

Work on GCACCGCAGC yielded a switch fluorescence ratio of 2.61.

Work on GGGCAGGAGG yielded a switch fluorescence ratio of 0.971.

Sequence GTCTCTGTTT has a switch fluorescence ratio of 0.945.

In the case of TTACGACCGC, the switch fluorescence ratio is reported as 1.21.

For TCGTGTCGAA, the switch fluorescence ratio was 1.03.

Sequence CGCATATGTT has a switch fluorescence ratio of 1.19.

CAATGCGTGA gave a switch fluorescence ratio of 1.

GTCATGATTG was tested, and the switch fluorescence ratio was 0.933.

Sequence CCCTCAGAGC has a switch fluorescence ratio of 1.

Sequence TCTCGACTCC has a switch fluorescence ratio of 1.23.

Sequence AGGAACATGC has a switch fluorescence ratio of 1.06.

CTCGTAATTT gave a switch fluorescence ratio of 1.26.

TGGCGGGAGA gave a switch fluorescence ratio of 1.05.

In the case of CTGCGGCTGA, the switch fluorescence ratio is reported as 0.974.

With GAGGGGAACG the switch fluorescence ratio was 1.01.

Work on CCATAATTCT yielded a switch fluorescence ratio of 1.

Sequence TACGGGATG has a switch fluorescence ratio of 1.06.

Sequence TAACAGGTAC has a switch fluorescence ratio of 1.07.

Sequence GATTTGACAT has a switch fluorescence ratio of 0.991.

TTTAAGTTCG was tested, and the switch fluorescence ratio was 1.01.

Sequence GGAAGATGAG has a switch fluorescence ratio of 1.

GCACTACTGG was tested, and the switch fluorescence ratio was 1.08.

In the case of GCTCAAGCTC, the switch fluorescence ratio is reported as 1.06.

For ATGCCTGTAC, the switch fluorescence ratio was 1.08.

Sequence TTCAGATTAA has a switch fluorescence ratio of 1.02.

ACCTGGAAAG gave a switch fluorescence ratio of 0.992.

In the case of TTTGGTGTCG, the switch fluorescence ratio is reported as 1.03.

In the case of GAAGCGCTGG, the switch fluorescence ratio is reported as 0.984.

AGATGGTCCG was tested, and the switch fluorescence ratio was 1.02.

CCGACGATTT showed a switch fluorescence ratio of 5.09.

AATCGCGTAC gave a switch fluorescence ratio of 2.66.

With ATGTGGCGTA the switch fluorescence ratio was 1.

ATAGTTTTC gave a switch fluorescence ratio of 0.967.

With TAAGTACACC the switch fluorescence ratio was 1.27.

Work on TGCGTGCACG yielded a switch fluorescence ratio of 0.974.

GCGTGCCCGA gave a switch fluorescence ratio of 1.01.

With TTAGTTTTAA the switch fluorescence ratio was 0.982.

CGAAGTCCTA gave a switch fluorescence ratio of 0.983.

ATCGTCGTCG gave a switch fluorescence ratio of 0.994.

For ACGGCCGATC, the switch fluorescence ratio was 0.959.

With GCAAAAACAT the switch fluorescence ratio was 1.03.

With TAAATAACGG the switch fluorescence ratio was 1.04.

CACTAAGTGT was tested, and the switch fluorescence ratio was 1.01.

CGCCTAATAA gave a switch fluorescence ratio of 1.04.

With CGTAATTTA the switch fluorescence ratio was 1.01.

With TGATGATTAG the switch fluorescence ratio was 0.942.

In the case of GTCATGTACC, the switch fluorescence ratio is reported as 1.13.

ACTTAATCG showed a switch fluorescence ratio of 1.04.

In the case of CTCGGCTTTA, the switch fluorescence ratio is reported as 1.3.

GTTTGAGCAT was tested, and the switch fluorescence ratio was 0.999.

With ATGAATTCTA the switch fluorescence ratio was 0.971.

For TCGGTCTGAA, the switch fluorescence ratio was 0.994.

TTCAGTGCTT gave a switch fluorescence ratio of 1.02.

GGAATATCAA showed a switch fluorescence ratio of 1.01.

With CGCGATGTTG the switch fluorescence ratio was 1.02.

With TGCCAGAAGT the switch fluorescence ratio was 0.985.

With GGTACTGTGA the switch fluorescence ratio was 1.05.

ACCAGGGGGC showed a switch fluorescence ratio of 0.881.

For GATCGAAAAT, the switch fluorescence ratio was 1.03.

With CGTCCTCGGG the switch fluorescence ratio was 1.02.

In the case of CGGCGCCGG, the switch fluorescence ratio is reported as 0.982.

In the case of TGGTTTAGCA, the switch fluorescence ratio is reported as 0.986.

For ACTGCCATG, the switch fluorescence ratio was 1.1.

Sequence CAGTTGGTCT has a switch fluorescence ratio of 1.02.

AGGAGTGATA showed a switch fluorescence ratio of 1.03.

In the case of AATGAGTTA, the switch fluorescence ratio is reported as 0.979.

Work on TCGGACGCTT yielded a switch fluorescence ratio of 4.16.

With GTTGGCGCTG the switch fluorescence ratio was 0.956.

With CCGAAGTTTG the switch fluorescence ratio was 1.7.

Sequence ATCAGTTGCC has a switch fluorescence ratio of 0.977.

In the case of AAAGAACTTT, the switch fluorescence ratio is reported as 1.06.

With CCTGAACTTC the switch fluorescence ratio was 1.04.

With CTATTCGTTT the switch fluorescence ratio was 1.01.

In the case of TTTGGTAACC, the switch fluorescence ratio is reported as 0.981.

GGTTTGGGAC showed a switch fluorescence ratio of 1.02.
